Results reported in PubChem BioAssay AID1745853 (National Center for Advancing Translational Sciences (NCATS), 2022).
Where “and” joins values, the source holds several entries; their conditions need not be identical. Equal entries are not always repeated. Some of the results follow. Shown are side measurements of this screen, not its main read-out; they come without a call.

Columns and labels:
Assay in all cases: Primary Screen for Target Class Profiling of Small Molecule Inhibitors of Methyltransferases
[1] = molecular target: Glycine N-methyltransferase (Homo sapiens) (UniProt Q14749); conditions: purified enzyme, MTase-Glo SAH luminescence; measured here: GNMT inhibition; at 40 µM; stronger effect = lower value
Procedure, shortened: (§1)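 Each enzyme was assayed with SAM and its substrate. SAH formation detected by MTase-Glo luminescence; single-point 40 uM screen[…].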

[2] = molecular target: Guanidinoacetate N-methyltransferase (Homo sapiens) (UniProt Q14353); conditions: purified enzyme, MTase-Glo SAH luminescence; measured here: GAMT inhibition; at 40 µM; stronger effect = lower value
Procedure, shortened: as §1

[3] = molecular target: Histamine N-methyltransferase (Homo sapiens) (UniProt P50135); conditions: purified enzyme, MTase-Glo SAH luminescence; measured here: HNMT inhibition; at 40 µM; stronger effect = lower value
Procedure, shortened: as §1

[4] = molecular target: Nicotinamide N-methyltransferase (Homo sapiens) (UniProt P40261); conditions: purified enzyme, MTase-Glo SAH luminescence; measured here: NNMT inhibition; at 40 µM; stronger effect = lower value
Procedure, shortened: as §1

[5] = molecular target: Phenylethanolamine N-methyltransferase (Homo sapiens) (UniProt P11086); conditions: purified enzyme, MTase-Glo SAH luminescence; measured here: PNMT inhibition; at 40 µM; stronger effect = lower value
Procedure, shortened: as §1
% is scaled to controls: 0 for no effect and ±100 for the full control effect.

SMILES	activity change, negative = inhibition [1]	activity change, negative = inhibition [2]	activity change, negative = inhibition [3]	activity change, negative = inhibition [4]	activity change, negative = inhibition [5]
CC(C)Oc1ccc(CN2C(=O)c3cc4occc4n3CC2(C)C(=O)NC2CCCCCCC2)cc1 (stereo not drawn)	-1.48%	0%	7.59%	-4.84%	-1.15%
Cn1nnnc1C1CCCN(C(=O)c2ccc(F)cc2)C1 (stereo not drawn)	-0.779%	-0.578%	1.19%	-1.71%	-3.22%
CC1CN(S(=O)(=O)c2ccc3[nH]c4c(c3c2)CCCC4)c2ccccc2O1 (stereo not drawn)	12.2%	6.02%	9.97%	-5.5%	6.15%
CN(C)C(=O)CN1CCCC(N2CCN(c3cccc(C(F)(F)F)c3)CC2)C1 (stereo not drawn)	-9.45%	-18.2%	-3.39%	-13.7%	-11.5%
CC1CCCN1C(=O)c1cc(-c2cnn(C(C)C)c2)nc2cc(F)ccc12 (stereo not drawn)	-6.9%	-14.1%	-6.19%	-22.4%	-17.8%
CC(C)(C)NCC(O)COc1cccc2[nH]c(=O)[nH]c12 (stereo not drawn)	-6.58%	3.57%	-1.02%	-7.97%	-1.65%
CC(C)Oc1cccc(-c2nnc(CCC(=O)NCCc3cccs3)c(=O)[nH]2)c1	-8.09%	-5.56%	-6.5%	-11.1%	-4.26%
CN(Cc1ccc(F)cc1)C(=O)c1cn(Cc2ccccc2C(F)(F)F)nn1	-4.94%	-7.34%	-1.07%	-15%	-16.4%
O=C(O)c1ccccc1NC(=O)N1CCC(c2ccccc2C(F)(F)F)CC1	-4.4%	-3.77%	7.92%	-24.3%	-4.02%
CCc1ccc(S(=O)(=O)c2nnn3c2nc(NCc2ccccc2)c2ccccc23)cc1	3.12%	2.74%	2%	-1.96%	-0.291%
COc1ccc(OC)c(CCN2C(=O)c3cc4occc4n3CC2(C)C(=O)NC2CCCCCC2)c1 (stereo not drawn)	-8.85%	0.633%	-6.62%	-6.79%	-7.71%
Cc1cccc(CN2CC(Oc3cccc(C(=O)NCC4CC4)c3)C2)c1	-11.5%	-18.5%	-11.5%	-22.4%	-16.6%
CCN(CC)CCNc1ccc2ncn3c4ccc(O)cc4c(=O)c1c23		7.02%		-27.5%	-13.6%
Cc1ccc(C)c(OCC(=O)N[C@H]2CCOC[C@H]2C2CCOCC2)c1C	-1.24%	-0.419%	-0.008%	1.11%	-3.07%
COC(=O)C[C@H]1[C@]2(C)C3=C(C)[C@H](c4ccoc4)C[C@H]3O[C@@H]2[C@H](OC(C)=O)C2[C@](C)(C(=O)OC)C=CC(=O)[C@@]21C (stereo partly drawn)	3.78%	2.54%	7.53%	-9.84%	-2.17%
Cc1cn([C@H]2C[C@H](O)[C@@H](CO)O2)c(=O)nc1N		9.49%		-8.35%	1.99%
O=C(c1ccccc1OC(F)(F)F)N1CCC(c2n[nH]c(=O)n2-c2ccccc2)CC1	-1.37%	1.74%	1.12%	-0.909%	2.03%
CC1CCC(NC(=O)C2(C)Cc3ccccc3C(=O)N2CCc2ccccc2)CC1 (stereo not drawn)	-8.24%	-0.288%	-7.77%	-4.36%	-11.5%
Cc1ccc2c(c1)c(-n1cccc1)c1n2CC(C)(C(=O)NC2CCCCCC2)N(Cc2ccco2)C1=O (stereo not drawn)	-11.7%	-3.96%	2.48%	-5.88%	-4.39%
Cc1ccc(C(=O)Cn2nc3n(CC(C)C)c(=O)c4ccc(C(=O)NCC(C)C)cc4n3c2=O)c(C)c1	4.38%	2.23%	7.01%	0.587%	2.51%

SMILES	activity change, negative = inhibition [1]	activity change, negative = inhibition [2]	activity change, negative = inhibition [3]	activity change, negative = inhibition [4]	activity change, negative = inhibition [5]
CCCS(=O)(=O)N1C[C@@H]2C(=O)N(CCC3CCN(C(C)C)CC3)C(=O)[C@@H]2C1	-1.74%	-1.89%	-5.48%	-4.42%	2.73%
O=C(Cc1ccccn1)NCCNC(=O)c1cccc(-c2ccc(C(F)(F)F)cc2)c1	-0.74%	-0.072%	0.781%	0.48%	0.646%
Cc1ccc(CNC(=O)C2(C)Cc3ccccc3C(=O)N2Cc2ccc(C(F)(F)F)cc2)cc1 (stereo not drawn)	15.7%	3.24%	13.2%	6.19%	9.82%
CCOc1ccccc1NC(=O)N1Cc2c(sc3c2CCCC3)-n2cccc2C1c1ccc(F)cc1 (stereo not drawn)	2.36%	2.25%	7.44%	-0.243%	6.75%
Clc1ccc(N2CCN(Cc3cc4ccccn4n3)CC2)cc1	-3.3%	10.1%	9.26%	-8.63%	5.18%
O=C(O)C1=CCCN(CCON=C(c2ccccc2)c2ccccc2)C1	-11.8%	2.11%	-2.87%	-14.1%	2.98%
O=C1N(C2CCN(S(=O)(=O)c3cnc[nH]3)CC2)C(c2ccccc2)C12CCCC2 (stereo not drawn)	-24%	-11.3%	-5.31%	-21.9%	-5.84%
COc1cccc(NC(=O)C2(C)CCc3cnc(NCc4ccccc4)nc32)c1 (stereo not drawn)	-21.9%	-14.3%	-8.44%	-26.7%	-15.8%
CN1C(=O)c2cc(C(=O)NCCN3CCCCC3)nn2CC1(C)C(=O)NCc1ccccc1 (stereo not drawn)	-1.1%	3.94%	-1.28%	3.81%	2.85%
O=C(N[C@H](c1ccccn1)C1CC(O)C1)c1cc(=O)n(-c2ccccc2)[nH]1 (stereo partly drawn)	-4.58%	-4.53%	-0.615%	-2.99%	9.1%
COc1cc(OC)c(C(=O)/C=C/c2ccccc2)c2c1C=CC(C)(C)O2		-28.4%		-26%	-8.98%
CCc1cc2c(cc3n2CC(C)(C(=O)NC2CCCCCC2)N(Cc2cccs2)C3=O)s1 (stereo not drawn)	1.92%	0%	4.34%	-10.4%	-0.375%
O=C(O[C@H]1[C@@H]2C[C@@H]3OC[C@](O)([C@@H]1Cl)[C@H]2C(O[C@@H]1O[C@H](CO)[C@@H](O)[C@H](O)[C@H]1O)O3)c1ccc(O)c(O)c1 (stereo partly drawn)	2.03%	3.96%	9.63%	-6.44%	0.192%
Fc1ccc(CN2CCC(Nc3ccc(C(F)(F)F)nn3)CC2)cc1F	-0.491%	-6.35%	-3.73%	-19.7%	-8.28%
CC1CCN(S(=O)(=O)c2nn(C)cc2C(=O)NCCc2cccs2)CC1	13.8%	3.26%	12%	9.74%	10.6%
Cc1cc(F)ccc1-c1[nH]nc2ncc(-c3ccnn3C)nc12	-21.4%	-11.4%	-20.9%	-5.38%	-0.394%
c1ccc(CN(CC2=NCCN2)c2ccccc2)cc1	4.83%	8.96%	5.23%	-6.11%	7.51%
CCN(c1nc(N)c(C(=O)N=C(N)N)nc1Cl)C(C)C	-0.063%	6.27%	-12.5%	-7.77%	2.22%
CN(C)c1ccc(-c2nnc3n(Cc4ccccc4)c(=O)c4ccccc4n23)cc1	-13.1%	2.57%	3.98%	-2.4%	-1.32%
CC1(C(=O)NC2CCCCCCC2)Cn2c(ccc2-c2ccco2)C(=O)N1CC1CCCO1 (stereo not drawn)	-6.14%	0.944%	-2.47%	-17.8%	-7.4%

SMILES	activity change, negative = inhibition [1]	activity change, negative = inhibition [2]	activity change, negative = inhibition [3]	activity change, negative = inhibition [4]	activity change, negative = inhibition [5]
Cc1cnc2c(C(=O)N3CCCn4nc(C(C)O)cc4C3)cnn2c1 (stereo not drawn)	-2.79%	-4.67%	0.561%	-2.92%	0.789%
O=C(NCc1ccc2c(c1)OCO2)c1sc(=S)n2c1[nH]c(=O)c1ccc(Cl)cc12	-52.3%	-7.21%	-10.1%	-50.9%	-70.5%
CC1(C(=O)NCc2ccccc2)Cn2nc(-c3ccccc3)cc2C(=O)N1Cc1cccc(Br)c1 (stereo not drawn)	-0.829%	1.96%	-2.78%	-0.504%	-4.7%
CCOCCCN1C(=O)c2cc(-c3ccc(OC)cc3)nn2CC1(C)C(=O)NC1CCCCC1 (stereo not drawn)	-5.31%	0.752%	-1.42%	-1.87%	-2.69%
CCCn1c(=O)c2ccc(C(=O)NC(C)CC)cc2n2c(=O)n(CC(=O)Nc3cccc(F)c3)nc12 (stereo not drawn)	4.23%	4.5%	10.1%	-2.01%	4.43%
CCC(C)NC(=O)c1ccc2c(=O)n(C(C)C)c3nn(CC(=O)NC(C)(C)C)c(=O)n3c2c1 (stereo not drawn)	0.084%	2.89%	-1.25%	-14.7%	-2.57%
CN(C)Cc1ccc(S(=O)(=O)n2ccc(/C=C/C(=O)NO)c2)cc1	-3.01%		5.09%	-0.13%	20%
CN(c1ccccc1)c1ccc2ncn(C3CC3)c(=O)c2n1	-14.8%	-11.9%	-17.7%	-23.4%	-20.8%
COc1c2c(c(C)c3c1C(=O)OC3)OC1(C)CC(O)C34OC(OC)(OC3(C)C)C(O)CC4(C)C1C2 (stereo not drawn)	0%	4.49%	4.94%	-25.2%	2.21%
CC(C)Cn1c(=O)c2cc(F)ccc2n2c(SCC(=O)NCc3ccccc3)nnc12	5.08%	2.44%	11.5%	-3.22%	6.13%
COCCOc1ccnc(-c2noc([C@@H]3CCCN3Cc3ccncc3)n2)c1	-1.45%	-2.58%	0.677%	-2.96%	0.334%
C[C@]1(O)CCN(C(=O)CCS(=O)(=O)c2ccccc2)C[C@@H]1O	-2.09%	-2.18%	0.452%	-4.32%	8.18%
Cc1cccc(C)c1NC(=O)Cn1c(=O)oc2cc(S(=O)(=O)N3CC(C)CC(C)C3)ccc21 (stereo not drawn)	-5.22%	5.92%	-0.493%	6.18%	-5.6%
Nc1ncnc2n[nH]c(Nc3ccc(F)cc3)c12	-41.9% and -20.1%	-11.5% and -11.1%	-33.9% and -17.8%	-33.3% and -25.9%	-26% and -24.2%
C[C@@H]1O[C@@H](O[C@H]2[C@@H](OC(=O)[C@]34CCC(C)(C)CC3C3=CCC5[C@@]6(C)C[C@H](O)[C@H](O[C@@H]7O[C@H](C(=O)O)[C@@H](O)[C@H](O)[C@H]7O)[C@@](C)(C(=O)O)C6CC[C@@]5(C)[C@]3(C)CC4)OC[C@H](O)[C@@H]2O)[C@H](O)[C@H](O)[C@H]1O[C@@H]1OC[C@@H](O)[C@H](O)[C@H]1O (stereo partly drawn)	0.256%	-6.74%	3.78%	-16.8%	-8.52%
O=C1NCCCCCCN(C(=O)c2ccco2)[C@H]2C[C@H](c3nc(-c4cnccn4)no3)C[C@@H]12	-3.81%	-3.08%	-1.4%	-2.95%	3.38%
CCn1cc(NC(=S)Nc2cc(Cl)ccc2OC)c(C(N)=O)n1	-2.94%	-2.8%	9.43%	-10.2%	4.3%
CCOCCCN1C(=O)c2cc3occc3n2CC1(C)C(=O)NC1CCCCCCC1 (stereo not drawn)	-6.97%	2.76%	-1.6%	0.663%	-1.75%
CC(C)CCNC(=O)C1CCCN(C2CCN(CCc3ccccc3)CC2)C1 (stereo not drawn)	0.039%	-3.99%	-2.4%	-2.6%	1.61%
